Measurements: PubChem BioAssay AID330 (DTP/NCI, 2004)
The source gives many values for each of these; only a part stands here. Inconclusive results and toxic doses are left out. Rule for the calls: active = survival T/C of 150% or more; inactive = T/C below 125% in these data.

Tested on: P388 leukemia ip, CD2F1 mice, survival T/C
Test: NCI In Vivo Anticancer Drug Screen. Data for tumor model P388 Leukemia (intraperitoneal) in CD2F1 (CDF1) mice
Conditions: endpoint: median survival time, higher = longer survival
How it was run: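 Mice carrying the transplanted tumor received test compound or vehicle. Survival was recorded in each group, and the value is the treated-group measurement divided by that of the vehicle-treated control group.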

Measured: T/C

O=NN(CCCl)C(=O)NCCCl
inactive: dose: 3.3 mg/kg/injection, schedule: Q01DX005 (ip), vehicle: saline + alcohol 89 % of control | dose: 3.3 mg/kg/injection, schedule: Q01DX009 (ip), vehicle: saline + alcohol 91 % of control | dose: 25.0 mg/kg/injection, schedule: Q01DX005 (ip), vehicle: saline with Tween-80 = 90 % of control | dose: 50.0 mg/kg/injection, schedule: Q04DX002 (ip), vehicle: saline + alcohol 88 % of control | dose: 64.0 mg/kg/injection, schedule: Q01DX001 (ip), vehicle: saline with Tween-80 = 66 % of control
